These are yes or no findings as the source states them, for the method shown. In cells and extracts the contact can be indirect. Some results given as binding are weak or reduced against the parent protein; the word gives no strength.
T1: Nox4 (NADPH oxidase 4), endogenous in human monocyte-derived macrophages (human (endogenous in HMDM)) (UniProt Q9NPH5)
T1 sequence: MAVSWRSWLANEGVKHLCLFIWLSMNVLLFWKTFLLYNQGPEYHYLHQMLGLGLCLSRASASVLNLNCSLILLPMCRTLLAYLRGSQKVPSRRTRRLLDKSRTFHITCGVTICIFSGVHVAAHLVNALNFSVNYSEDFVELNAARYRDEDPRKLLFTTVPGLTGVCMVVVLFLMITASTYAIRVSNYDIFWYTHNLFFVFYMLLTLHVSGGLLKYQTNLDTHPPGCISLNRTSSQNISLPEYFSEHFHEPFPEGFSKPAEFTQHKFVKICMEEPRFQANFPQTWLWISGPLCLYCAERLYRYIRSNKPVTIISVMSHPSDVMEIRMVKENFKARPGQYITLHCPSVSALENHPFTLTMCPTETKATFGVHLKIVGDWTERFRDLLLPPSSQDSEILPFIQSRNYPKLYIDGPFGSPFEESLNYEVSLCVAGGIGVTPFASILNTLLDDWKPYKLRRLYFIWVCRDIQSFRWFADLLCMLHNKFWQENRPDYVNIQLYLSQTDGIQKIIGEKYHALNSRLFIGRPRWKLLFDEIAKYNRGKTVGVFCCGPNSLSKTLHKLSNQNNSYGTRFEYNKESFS

By UniProt entry, the sequences of proteins in these tests, tags left out.
UniProt P49023: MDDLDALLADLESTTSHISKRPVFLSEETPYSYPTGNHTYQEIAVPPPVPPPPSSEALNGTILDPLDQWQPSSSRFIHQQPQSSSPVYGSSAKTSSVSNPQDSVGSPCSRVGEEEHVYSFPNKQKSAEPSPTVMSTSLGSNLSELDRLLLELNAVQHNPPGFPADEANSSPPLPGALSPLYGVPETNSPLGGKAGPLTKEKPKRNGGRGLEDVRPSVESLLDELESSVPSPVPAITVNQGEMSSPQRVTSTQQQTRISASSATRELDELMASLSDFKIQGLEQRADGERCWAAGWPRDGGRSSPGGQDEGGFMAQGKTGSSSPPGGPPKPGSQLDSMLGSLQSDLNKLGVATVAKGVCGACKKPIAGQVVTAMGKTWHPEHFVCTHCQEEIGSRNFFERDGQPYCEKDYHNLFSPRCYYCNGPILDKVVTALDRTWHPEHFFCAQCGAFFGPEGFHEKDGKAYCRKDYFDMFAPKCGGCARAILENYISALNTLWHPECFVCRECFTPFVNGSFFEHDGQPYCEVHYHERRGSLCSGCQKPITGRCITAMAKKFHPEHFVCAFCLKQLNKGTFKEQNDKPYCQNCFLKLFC
UniProt P27361: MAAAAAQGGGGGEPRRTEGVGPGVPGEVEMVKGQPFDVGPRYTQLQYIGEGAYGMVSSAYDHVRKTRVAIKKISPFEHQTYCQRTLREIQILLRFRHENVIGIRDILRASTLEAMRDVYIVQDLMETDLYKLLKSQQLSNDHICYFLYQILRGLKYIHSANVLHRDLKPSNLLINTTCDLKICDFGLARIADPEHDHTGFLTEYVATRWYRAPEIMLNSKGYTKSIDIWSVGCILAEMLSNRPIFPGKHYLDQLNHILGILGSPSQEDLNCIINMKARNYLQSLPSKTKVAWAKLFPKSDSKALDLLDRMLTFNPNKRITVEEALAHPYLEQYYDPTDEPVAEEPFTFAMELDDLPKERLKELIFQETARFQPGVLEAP
UniProt P28482: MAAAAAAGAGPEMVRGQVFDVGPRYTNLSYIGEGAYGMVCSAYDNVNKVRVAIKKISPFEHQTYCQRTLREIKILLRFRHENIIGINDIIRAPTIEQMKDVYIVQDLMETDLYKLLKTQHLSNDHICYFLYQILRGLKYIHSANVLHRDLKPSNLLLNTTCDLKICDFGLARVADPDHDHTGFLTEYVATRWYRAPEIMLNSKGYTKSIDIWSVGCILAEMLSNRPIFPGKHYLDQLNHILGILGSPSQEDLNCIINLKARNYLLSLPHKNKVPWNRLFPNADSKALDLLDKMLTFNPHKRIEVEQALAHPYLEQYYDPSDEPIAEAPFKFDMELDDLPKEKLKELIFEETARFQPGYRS
UniProt Q05397: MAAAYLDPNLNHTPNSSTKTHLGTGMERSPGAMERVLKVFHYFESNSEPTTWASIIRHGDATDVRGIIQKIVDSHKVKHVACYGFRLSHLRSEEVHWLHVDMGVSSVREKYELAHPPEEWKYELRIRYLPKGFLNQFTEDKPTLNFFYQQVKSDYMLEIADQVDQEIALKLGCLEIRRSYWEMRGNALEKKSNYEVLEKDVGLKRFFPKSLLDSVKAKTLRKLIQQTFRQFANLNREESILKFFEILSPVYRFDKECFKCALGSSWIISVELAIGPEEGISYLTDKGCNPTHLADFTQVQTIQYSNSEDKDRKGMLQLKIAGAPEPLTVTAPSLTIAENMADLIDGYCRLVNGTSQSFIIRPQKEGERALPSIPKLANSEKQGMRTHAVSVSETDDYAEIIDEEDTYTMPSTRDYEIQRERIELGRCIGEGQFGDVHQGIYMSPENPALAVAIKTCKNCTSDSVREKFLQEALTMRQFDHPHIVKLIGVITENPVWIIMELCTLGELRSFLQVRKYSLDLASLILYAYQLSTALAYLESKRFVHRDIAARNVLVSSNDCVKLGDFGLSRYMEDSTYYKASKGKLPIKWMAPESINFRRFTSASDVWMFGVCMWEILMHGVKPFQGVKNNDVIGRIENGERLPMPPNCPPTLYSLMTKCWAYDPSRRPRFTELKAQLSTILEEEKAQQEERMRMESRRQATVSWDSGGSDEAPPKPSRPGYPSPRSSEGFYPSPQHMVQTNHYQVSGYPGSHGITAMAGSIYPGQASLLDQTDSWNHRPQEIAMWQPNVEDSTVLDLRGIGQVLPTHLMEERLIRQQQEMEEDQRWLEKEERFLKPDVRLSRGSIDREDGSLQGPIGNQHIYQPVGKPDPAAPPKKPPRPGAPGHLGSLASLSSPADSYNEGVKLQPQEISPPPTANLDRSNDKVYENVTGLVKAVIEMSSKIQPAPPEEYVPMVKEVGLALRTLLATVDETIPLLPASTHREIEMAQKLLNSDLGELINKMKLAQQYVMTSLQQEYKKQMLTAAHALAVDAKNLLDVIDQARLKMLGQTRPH


Target: T1, Nox4 (NADPH oxidase 4), endogenous in human monocyte-derived macrophages (human (endogenous in HMDM))
Assay: co-IP; HMDM lysate (MES-buffered saline, 1% Triton X-100, 1 mM EDTA, 0.5% NP-40), precleared with Protein G Sepharose; rabbit monoclonal Nox4 antibody or rabbit serum (control), 4°C overnight; Protein G Sepharose; Western blot

Row | Molecule | binding
1 | paxillin (from UniProt P49023 1-591) | binds
2 | low molecular weight protein tyrosine phosphatase (enzyme, UniProt P24666 1-158) MAEQATKSVLFVCLGNICRSPIAEAVFRKLVTDQNISENWRVDSAATSGYEIGNPPDYRGQSCMKRHGIPMSHVARQITKEDFATFDYILCMDESNLRDLNRKSNQVKTCKAKIELLGSYDPQKQLIIEDPYYGNDSDFETVYQQCVRCCRAFLEKAH | no binding
3 | p22phox (protein, UniProt P13498 1-195) MGQIEWAMWANEQALASGLILITGGIVATAGRFTQWYFGAYSIVAGVFVCLLEYPRGKRKKGSTMERWGQKYMTAVVKLFGPFTRNYYVRAVLHLLLSVPAGFLLATILGTACLAIASGIYLLAAVRGEQWTPIEPKPRERPQIGGTIKQPPSNPPPRPPAEARKKPSEEEAAVAAGGPPGGPQVNPIPVTDEVV | binds

Other lines, results leading:

Row | binding | Molecule
4 | binds | MAPK ERK1 (from UniProt P27361 1-379) (enzyme)
5 | binds | MAPK ERK2 (from UniProt P28482 1-360) (enzyme)
6 | binds | focal adhesion kinase phosphorylated at tyrosine-397 (from UniProt Q05397 1-1052) (enzyme)

Source: PMC3688996
